# Laboratory results taken from PubChem BioAssay AID1645887 (National Center for Advancing Translational Sciences (NCATS), 2021).
# Where “and” joins values, the source holds several entries; their conditions need not be identical. Identical values can stand only once. The whole screen tested about 16,000 compounds, of which about 40 (0.2%) were called active. Roughly 1% stayed inconclusive and do not appear here. Calls come from the whole dose curve; as a rule, active = well fitted activation curve with a large enough effect; inconclusive = small, poorly fitted or top-dose-only effect, or another doubt; inactive = no such curve, though single readings can be large or run the other way. The list shows a part of the results. Residues, ends and D or L forms follow the SMILES beside them.
# Target: Rap guanine nucleotide exchange factor 4 (Homo sapiens) (UniProt Q8WZA2)
# UniProt Q8WZA2, sequence (Q8WZA2 whole entry, looked up): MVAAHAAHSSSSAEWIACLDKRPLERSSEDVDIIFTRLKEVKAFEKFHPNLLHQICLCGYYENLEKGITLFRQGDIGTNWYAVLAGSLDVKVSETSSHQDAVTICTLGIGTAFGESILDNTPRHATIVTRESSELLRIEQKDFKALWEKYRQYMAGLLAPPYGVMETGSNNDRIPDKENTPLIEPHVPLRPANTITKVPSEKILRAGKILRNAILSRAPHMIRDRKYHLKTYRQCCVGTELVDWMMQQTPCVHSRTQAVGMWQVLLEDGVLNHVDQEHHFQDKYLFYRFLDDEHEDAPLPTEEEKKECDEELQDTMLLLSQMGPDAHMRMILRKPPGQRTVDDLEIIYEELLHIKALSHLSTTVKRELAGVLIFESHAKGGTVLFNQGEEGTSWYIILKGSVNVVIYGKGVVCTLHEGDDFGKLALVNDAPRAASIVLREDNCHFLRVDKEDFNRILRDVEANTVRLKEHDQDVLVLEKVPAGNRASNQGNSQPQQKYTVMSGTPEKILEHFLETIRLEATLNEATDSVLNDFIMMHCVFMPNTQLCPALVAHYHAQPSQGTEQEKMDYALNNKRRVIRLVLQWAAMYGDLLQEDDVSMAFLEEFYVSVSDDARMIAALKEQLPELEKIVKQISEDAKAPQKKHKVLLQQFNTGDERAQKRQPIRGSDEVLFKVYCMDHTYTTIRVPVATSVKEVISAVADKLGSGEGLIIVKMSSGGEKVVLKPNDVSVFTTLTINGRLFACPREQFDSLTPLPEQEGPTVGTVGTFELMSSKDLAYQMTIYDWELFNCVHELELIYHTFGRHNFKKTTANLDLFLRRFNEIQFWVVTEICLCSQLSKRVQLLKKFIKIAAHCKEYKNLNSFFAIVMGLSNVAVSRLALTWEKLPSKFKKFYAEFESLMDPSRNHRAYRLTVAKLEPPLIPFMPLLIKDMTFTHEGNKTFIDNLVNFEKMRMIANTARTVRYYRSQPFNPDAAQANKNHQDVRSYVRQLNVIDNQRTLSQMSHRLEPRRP
# Test: Validation qHTS for agonist of cAMP-regulated guanine nucleotide exchange factor 4 (EPAC2);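 note: exchange makes BODIPY-GDP fluorescence drop when released from Rap1B; series mostly up to about 150 µM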
# Conditions: EPAC2 Rap1B BODIPY-GDP exchange, fluorescence; activation: hits give high values
# Method in brief: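 Signal normalized against 6.5 mM cAMP as agonist control. Mix of EPAC2 (100 nM), RAP1B-BODIPY-GDP (250 nM) and GDP (50 uM) was read kinetically at 480/540 nm, every 5 min over 30 min, after 5 min room-temperature incubation with compound.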
# % is set by controls: 0 for no effect and ±100 for the full control effect.
row,Structure (SMILES),activation
1,NC(N)=NCCCCCCCCCCN=C(N)N,inactive: -12% and inactive: 0.499%
2,CC1(C)C(C=C(Cl)Cl)C1C(=O)OC(C#N)c1cccc(Oc2ccccc2)c1 (stereo unspecified),inactive: 4.44% and inactive: -0.317%
3,O=C(O)[C@@H]1Cc2[nH]cnc2C(c2cccnc2)N1 (stereo partly specified),inactive: -7.21%
4,Oc1cc(Cl)ccc1Oc1ccc(Cl)cc1Cl,inactive: 15% and inactive: -39.4%
5,CC[C@@H](O)C(C[C@@H](C)N(C)C)(c1ccccc1)c1ccccc1,inactive: -4.06%
6,NCC(O)c1cccc(O)c1 (stereo unspecified),inactive: -5.63%
7,c1csc(C2(N3CCCCC3)CCCCC2)c1,inactive: -11.7%
8,CCC(=O)O[C@H]1[C@@H](N2CCCCC2)C[C@H]2[C@@H]3CC[C@H]4C[C@H](OC(C)=O)[C@@H](N5CCCCC5)C[C@]4(C)[C@H]3CC[C@@]21C,inactive: -11.9%
9,CCOC(=O)[C@]12Cc3cc(OC)ccc3[C@H]1N(Cc1ccccc1)C(=O)c1cc(F)c(F)cc12,inactive: -20.3%
10,CC[C@@H]1CN2CC[C@@H]1C[C@H]2[C@H](O)c1ccnc2ccc(OC)cc12,inactive: -8.78%
11,C[C@]12N[C@H](Cc3ccccc31)c1ccccc12,inactive: 7.5% and inactive: -11.3% and inactive: -36.4%
12,O=C(N[C@@H]1N=C(c2ccccc2F)c2cccc3c2N(CC3)C1=O)c1cc2ccccc2[nH]1,inactive: -11.6%
13,O=C1CCCN1CC#CCN1CCCC1,inactive: -4.96% [middle of 4 runs]
14,CC(C)(C)c1o[nH]c(=O)c1CC(N)C(=O)O (stereo unspecified),inactive: -25.4%
15,C=CCC1(C(C)CCC)C(=O)N=C(S)NC1=O (stereo unspecified),inactive: -15.4%
16,CCN(CC)C(C)C(=O)c1ccccc1 (stereo unspecified),inactive: 5.71%
17,COc1ccc2c(c1OC)C(=O)O[C@@H]2C1c2cc3c(cc2CCN1C)OCO3 (stereo partly specified),inactive: -5.82%
18,N#Cc1cccc(NC(=O)N2CC3(CCN(C(=O)Oc4ccccc4)CC3)C2)c1,inactive: -4.84%
19,CC(C)CN1CC2(CCN(C(=O)Oc3ccccc3)CC2)C1,inactive: 4.73%
20,CCN1C[C@@]2(COC)C3[C@@H](OC)C4[C@@H]1[C@@]3(C1C[C@@]3(O)[C@H](OC(=O)c5ccccc5)C1[C@]4(OC(C)=O)[C@@H](O)[C@@H]3OC)[C@@H](OC)C[C@H]2O (stereo partly specified),inactive: 5.32%
21,COC(=O)C(c1ccccc1)C1CCCCN1 (stereo unspecified),inactive: -6.45%
22,COC(=O)c1cncn1C(C)c1ccccc1 (stereo unspecified),inactive: -12.1%

row,Structure (SMILES),activation
1,ClC=C(Cl)Cl,inactive: -4.89%
2,C[C@H]1C(=O)O[C@@H]2CCN3CC=C(COC(=O)[C@](C)(O)[C@]1(C)O)[C@H]23,inactive: 17.2%
3,CCCN1C[C@H](C)N([C@H](c2ccc(C(=O)N(CC)CC)cc2)c2cccc(OC)c2)C[C@H]1C,inactive: -26.5% and inactive: -7.7%
4,CC(C)=CCCC1(C)C=Cc2c(O)c3c(c(CC=C(C)C)c2O1)OC12C(=CC4CC1C(C)(C)OC2(C/C=C(/C)C(=O)O)C4O)C3=O (stereo unspecified),inactive: -33.8%
5,Clc1ccc([C@@H]2C[C@H]3CC[C@@H]2N3)cn1,inactive: -29.3% and inactive: -15.5%
6,O=C(O)COc1cc(Cl)c(Cl)cc1Cl,inactive: -9.08%
7,O=[N+]([O-])/N=C1\NCCN1Cc1ccc(Cl)nc1,inactive: -31.2% and inactive: 12.4%
8,CC(=O)OCC1=C(C(=O)O)N2C(=O)[C@@H](N)[C@H]2SC1,inactive: -1.58%
9,CN1C(=O)CN=C(c2ccccc2)c2cc([N+](=O)[O-])ccc21,inactive: 4.76%
10,CC(=O)[C@H]1CC[C@H]2[C@@H]3CC[C@@H]4C[C@H](O)CC[C@]4(C)[C@H]3CC[C@]12C,inactive: 1.96%
11,CCC1C2CC3C4N(C)c5ccccc5[C@]45CC(C2C5O)N3C1O (stereo partly specified),inactive: -2.58%
12,CCCN1CCc2cc(O)cc3c2[C@H]1Cc1ccc(O)c(O)c1-3,inactive: -24.3%
13,OC[C@@H](O)[C@H]1O[C@@H]2O[C@H](C(Cl)(Cl)Cl)O[C@@H]2[C@H]1O,inactive: 2.88%
14,O=C(O)CCC1NCC2CC1CN1CCCCC21 (stereo unspecified),inactive: -6.42%
15,COc1cc(CCN)ccc1O,inactive: 3.01%
16,O=C(Oc1ccccc1)N1CCC2(CCN(Cc3nccs3)CC2)CC1,inactive: -6.89%
17,C#CCN[C@H](C)Cc1ccccc1,inactive: -15%
18,CCCN(CCC)[C@@H]1CCc2cccc(O)c2C1,inactive: -13.9% and inactive: 0.74% and inactive: -46.2%
19,C[C@]12CC[C@H]3[C@@H](CCC4=CC(=O)CC[C@@]43C)[C@@H]1CC[C@H]2O,inactive: -0.042%
20,NCc1cc(=O)[nH]o1,inactive: -11% and inactive: -12.9% and inactive: -6.25%
21,C[C@H]1CCC/C=C/C2C[C@H](O)C[C@H]2[C@H](O)/C=C/C(=O)O1 (stereo partly specified),inactive: 2.69%
22,CN1C(=O)NC(=O)C(C)(C2=CCCCC2)C1=O (stereo unspecified),inactive: -16.2% and inactive: 7.96%

row,Structure (SMILES),activation
1,O=C1CCC[C@H]2[C@H]3CCCN4CCCC(=CN12)[C@@H]34,inactive: 2.17%
2,COc1cc2c(c(OC)c1OC)-c1ccc(O)c(=O)cc1[C@@H](NC(C)=O)CC2,inactive: -8.03%
3,O=C1CCCC2[C@@H]3CCCN4CCC[C@@H](CN12)C34 (stereo partly specified),inactive: 2.93%
4,CN1CCCC(=C(c2cccs2)c2cccs2)C1,inactive: -15.2%
5,C#C[C@]1(O)C=C[C@H]2[C@@H]3CCC4=CC(=O)CC[C@@H]4[C@H]3CC[C@@]21CC,inactive: -11.6%
6,Cc1nnc2ccc(-c3cccc(C(F)(F)F)c3)nn12,inactive: -19.7%
7,COc1cc2c(cc1-c1cc3cc4ccoc4cc3oc1=O)OCO2,inactive: -15.2%
8,CCCC[C@@H](C)[C@@H](OC(=O)C[C@@H](CC(=O)O)C(=O)O)[C@H](C[C@@H](C)C[C@H](O)CCCC[C@@H](O)C[C@H](O)[C@H](C)N)OC(=O)C[C@H](CC(=O)O)C(=O)O,inactive: -4.43%
9,COC(=O)[C@H]1[C@@H](OC(=O)c2ccccc2)C[C@@H]2CC[C@H]1N2C,inactive: -17.2%
10,CCC1C(=O)OC[C@H]1Cc1cncn1C (stereo partly specified),inactive: -4.78%
11,C[C@@H](Cc1ccc(OCC(=O)O)cc1)NC[C@H](O)c1cccc(Cl)c1,inactive: -8.02%
12,CC(C)C[C@H](CN)CC(=O)O,inactive: 13.8%
13,COc1cc2c(cc1OC)[C@@H]1C(=O)c3ccc4oc(C(C)C)cc4c3OC1CO2 (stereo partly specified),inactive: -22.5%
14,CN(C)C(=S)SSC(=S)N(C)C,inactive: -26.3% and inactive: -18.9%
15,C[C@H](NC(=O)[C@@H](N)Cc1ccc(O)cc1)C(=O)N[C@@H](Cc1ccccc1)C(=O)N[C@@H](Cc1ccccc1)C(N)=O (H-YAFF-NH2),inactive: 0.757%
16,CC1CC[C@@]2(NC1)O[C@@H]1C[C@H]3C4CC=C5C[C@@H](O)CC[C@]5(C)C4CC[C@]3(C)[C@H]1[C@@H]2C (stereo partly specified),inactive: -1.86%
17,CC(C)(C)NCC(O)c1ccccc1Cl (stereo unspecified),inactive: -21.4% and inactive: -18%
18,CC1(C(=O)O)C2CCC(O2)C1(C)C(=O)O (stereo unspecified),inactive: -33.5%
19,Oc1ccc([C@H]2CNCc3c2ccc(O)c3O)cc1O,inactive: -2.04%
20,CCCN(CCC)[C@@H]1CCc2c(OC)cccc2[C@@H]1C,inactive: -8.41% and inactive: -15%
21,C[C@@]1(CO)[C@H](O)CC[C@@]2(C)[C@H]1CC[C@H]1C[C@@H]3C[C@@]12CC[C@]3(O)CO,inactive: -50%
22,CN1[C@@H]2CC[C@H]1CC(OC1c3ccccc3CCc3ccccc31)C2 (stereo partly specified),inactive: 2.11%

row,Structure (SMILES),activation
1,NC(=NCCc1ccc(I)cc1)SCCCc1cnc[nH]1,inactive: 2.46% and inactive: 0.812%
2,CC(C)(C)C(=O)C(Oc1ccc(Cl)cc1)n1cncn1 (stereo unspecified),inactive: -17%
3,CC(=O)OO,inactive: -15.7%
4,CN(C)[C@H](Cc1ccccc1)c1ccccc1,inactive: -7.6%
5,CNC(C)C(O)c1ccccc1 (stereo unspecified),inactive: -20.7%
6,COc1ccc(CNC(=O)/C=C\c2ccc3[nH]cc(CCN(C)C)c3c2)cc1,inactive: -1.86%
7,CC(C)Oc1cccc(NC(=O)c2ccccc2C(F)(F)F)c1,inactive: -18.4%
8,CN1CC[C@@]23CCCC[C@@H]2[C@@H]1Cc1ccc(O)cc13,inactive: 4.34%
9,COc1cc(C[C@@H](C)N)c(OC)cc1Br,inactive: -0.789%
10,O=NN1CCCC1c1cccnc1 (stereo unspecified),inactive: -7.5%
11,CC(C)c1cc2c(c(O)c1O)[C@]1(C(=O)O)CCCC(C)(C)C1CC2 (stereo partly specified),inactive: -4.43%
12,CCN(CC)C(=O)[C@@H]1C=C2c3cccc4[nH]cc(c34)C[C@H]2N(C)C1,inactive: 27.5%
13,CCNC1(c2cccs2)CCCCC1=O (stereo unspecified),inactive: -5.35%
14,CC(C)C[C@H](NC(=O)[C@H](Cc1ccccc1)NC(=O)CNC(=O)[C@@H](NC(=O)[C@@H](N)Cc1ccc(O)cc1)[C@H](C)O)C(=O)N[C@H](C(=O)O)[C@H](C)O,inactive: 1.51%
15,CCNC(C)Cc1cccc(C(F)(F)F)c1 (stereo unspecified),inactive: -1.18%
16,C1CCC(NC2CCCCC2)CC1,inactive: -4.19%
17,COc1ccc(C(=O)CN2CCOCC2)cc1,inactive: 0.04%
18,CCC1(c2cccc(O)c2)CCCCN(C)C1 (stereo unspecified),inactive: -17.8%
19,C[C@H](N)Cc1c[nH]c2ccc(OCc3cccs3)cc12,inactive: -6.52%
20,CC(C)[C@]1(O)[C@@H](OC(=O)c2ccc[nH]2)[C@@]2(O)[C@@]3(C)C[C@]4(O)O[C@@]5([C@H](O)[C@@H](C)CC[C@]35O)[C@@]2(O)C41C,inactive: -3.56%
